Here are results for 37 compounds from the supplement of paper PMC11283458.

The structures appear in SMILES notation. Counter-ions that a name gives are not always drawn. Some of the results follow. Many values rest on one well or one pass, so single values are uncertain.

For experiment [1], the system named is Mef2d microexon dual Nano/Firefly luciferase splicing reporter in Neuro-2a cells. Description: B-score of Firefly/Nano luminescence ratio, V1 Mef2d microexon reporter (B-score (plate-normalised)); higher = more Mef2d microexon inclusion. To be noted: 24 h.
Experiment [2] shares this test system. Description: B-score of Nano/Firefly luminescence ratio, V2 Mef2d microexon reporter (B-score (plate-normalised)); higher = more Mef2d microexon inclusion. Particulars: 24 h.
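Throughout, for B-score of Nano/Firefly luminescence ratio, V2 Mef2d microexon reporter: compounds at 4 µM (PKI library 0.5 µM) on Dox-inducible N2A Flp-In cells with PEST-tagged luciferases, 384-well plates, B-score from per-plate median-polish residual over median absolute residual.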

For `O=C(Nc1ccc(SC(F)(F)F)cc1)ON=C1CC2CCCC(C1)N2Cc1cccs1` (4 µM), the results for the B-score in experiment [1] and in experiment [2] were 13.5 and 2.38, respectively.

As for `COc1cc(OC)c(/C=C2/C(=O)Nc3ccccc32)c(OC)c1` (4 µM), the B-score in experiment [1] was -11.4; in experiment [2], -11.3.

Turning to `Cc1noc(C)c1C(=O)ON=C(N)c1cc(C(F)(F)F)cc(C(F)(F)F)c1` (4 µM), the results for the B-score in experiment [1] and in experiment [2] were 11.3 and 3.07, respectively.

Take `COc1cc2nccc(Oc3ccc(NC(=O)Nc4cc(C)on4)c(Cl)c3)c2cc1OC` (0.5 µM): the results for the B-score in experiment [1] and in experiment [2] were 7.46 and 8.95, respectively.

For `Nc1nc(Nc2ccc(S(N)(=O)=O)cc2)nn1C(=S)Nc1c(F)cccc1F` [Cdk1/2 Inhibitor III] (0.5 µM), the B-score in experiment [1] was -19.6; in experiment [2] it was -19.4.

`CC(C)(C)c1ccc(C(O)CCCN2CCC(C(O)(c3ccccc3)c3ccccc3)CC2)cc1` (centres undefined) (4 µM): the B-score came out at 3.62 in experiment [1] and 2.4 in experiment [2].

As for `O=C(COc1ccc(C2=Nc3ccccc3NC(c3ccccc3)C2)cc1)Nc1ccccc1` (centres undefined) (4 µM), the B-score turned out to be 3.37 in experiment [1] and 1.12 in experiment [2].

In the case of `Cc1ccc(NC(=O)c2coc(Br)c2)nc1` (4 µM), the B-score in experiment [1] is -2.4; in experiment [2], -14.3.

As for `Cc1onc(-c2c(Cl)cccc2Cl)c1C(=O)ON=C(N)Cc1ccc(C(C)(C)C)cc1` (4 µM), the B-score was found to be 4.82 in experiment [1] and 2.24 in experiment [2].

For `CC[C@@H]1C(=O)N(C)c2cnc(Nc3ccc(C(=O)NC4CCC(N5CCN(CC6CC6)CC5)CC4)cc3OC)nc2N1C(C)C` (some centres undefined) [BI-6727, volasertib] (0.5 µM), the B-score in experiment [1] is -7.89; in experiment [2] it was -4.82.

As for `CCCCCCc1ccccc1NC(=O)Nc1cccnc1` (4 µM), the figures for the B-score in experiment [1] and in experiment [2] were 4.02 and 2.49, respectively.

With `CCCc1nn(C)cc1C(=O)ON=C(N)c1ccc(Cl)cc1` (4 µM), the B-score in experiment [1] stood at 14.1; in experiment [2], 1.62.

`CN(Cc1cnc2nc(N)nc(N)c2n1)c1ccc(C(=O)N[C@@H](CCC(=O)O)C(=O)O)cc1` [Methotrexate] (4 µM): the B-score in experiment [1] is -4.72; in experiment [2], -10.6.

Take `Cc1nc(C(N)=NOC(=O)c2c(-c3ccccc3)noc2C)cs1` (4 µM): the values for the B-score in experiment [1] and in experiment [2] were 5.14 and 2.78, respectively.

For `CCc1cccc(N2CC(C(=O)Nc3nc4ccccc4[nH]3)CC2=O)c1` (centres undefined) (4 µM), the B-score is -1 in experiment [1] and -5.59 in experiment [2].

For `CCOC(=O)c1c(N2C(=O)C=CC2=O)sc2c1CCCC2` (4 µM), the B-score came out at 7.47 in experiment [1] and 1.63 in experiment [2].

Regarding `O=C(Nc1ccc2[nH]nc(-c3ccncc3)c2c1)[C@@H]1CCN(CC(=O)N2CCN(c3ccc(-c4ncccn4)cc3)CC2)C1` (0.5 µM), the B-score was found to be 8.88 in experiment [1] and 6.16 in experiment [2].

Regarding `Cc1ccc(C(=O)C=CSc2ncc(C(F)(F)F)cc2Cl)cc1` (4 µM), the B-score is -2.63 in experiment [1] and -7.55 in experiment [2].

Regarding `Cc1onc(-c2ccccc2)c1C(=O)Nc1c(C(C)(C)C)nn(C)c1C(C)(C)C` (4 µM), the figures for the B-score in experiment [1] and in experiment [2] were 7.28 and 3.45, respectively.

Regarding `COc1cc2c(cc1OC)C(c1ccc(Cl)cc1Cl)N(c1ccc(C)cc1)C(=O)C2` (centres undefined) (4 µM), the B-score in experiment [1] is -7.31; in experiment [2] it was -8.23.

On to `Cc1cc(Nc2cc(C)c(C#N)c(NC(C)CCCC(C)(C)O)n2)n[nH]1` (centres undefined) [TC-A 2317 hydrochloride] (0.5 µM), for which the B-score was 7.66 in experiment [1] and 4.78 in experiment [2].

Turning to `Cc1cc(-c2c(C(=O)Sc3ccccc3)c(C)nn2-c2cccc(C(F)(F)F)c2)no1` (4 µM), the B-score in experiment [1] is 6.07; in experiment [2], 1.09.

Consider `Cc1onc(-c2c(Cl)cccc2Cl)c1C(=O)ON=C(c1ccc(F)cc1)C1CC1` (4 µM), for which the B-score in experiment [1] came out at 3.29; in experiment [2], 4.49.

For the compound `COc1cc(NC(=O)c2ccc([N+](=O)[O-])o2)cc(C(F)(F)F)c1` (4 µM), the B-score in experiment [1] came out at 1.94; in experiment [2], 3.28.

`COc1ccc2ccccc2c1C=Nc1ccc(-c2ccc(N=Cc3c(OC)ccc4ccccc34)cc2)cc1` (4 µM): the B-score in experiment [1] was -2.37; in experiment [2] it was -4.11.

For `COc1cc2nccc(Oc3ccc(NC(=O)Nc4ccc(F)cc4F)c(F)c3)c2cc1OC` (0.5 µM), the B-score in experiment [1] came to 4.95; in experiment [2], 8.1.

Regarding `CCCNC(=O)Nc1ccc(OC(F)(F)F)cc1` (4 µM), the B-score in experiment [1] was 4.72; in experiment [2], 1.23.

Turning to `C=CCn1c(N)c(C(=O)NN=Cc2cccs2)sc1=S` (4 µM), the results for the B-score in experiment [1] and in experiment [2] were 4.38 and 2.21, respectively.

In the case of `Cc1onc(-c2ccccc2Cl)c1C(=O)N1CCN(c2cccc(Cl)c2)CC1` (4 µM), the B-score in experiment [1] was -9.62; in experiment [2] it was -6.18.

Consider `O=C(Nc1cccc([N+](=O)[O-])c1)C(C(=O)Nc1cccc([N+](=O)[O-])c1)C12CC3CC(CC(C3)C1)C2` (4 µM), for which the values for the B-score in experiment [1] and in experiment [2] were 4.13 and 3.01, respectively.

For the compound `Cc1ccc(NC(=O)COC(=O)CCc2c[nH]c3ccccc23)cc1[N+](=O)[O-]` (4 µM), the results for the B-score in experiment [1] and in experiment [2] were -17.8 and -0.139, respectively.

For `N#Cc1cc([N+](=O)[O-])cnc1SCC(=O)Nc1ccccc1` (4 µM), the B-score in experiment [1] was -2.87; in experiment [2], -8.62.

Regarding `Cc1csc(-c2nnc(Nc3ccc(Oc4ncccc4-c4ccnc(N)n4)cc3)c3ccccc23)c1` (0.5 µM), the B-score was -1.94 in experiment [1] and -5.56 in experiment [2].

On to `CC(=O)OCC(=O)[C@@]1(O)CC[C@H]2[C@@H]3CCC4=CC(=O)CC[C@]4(C)[C@H]3C(=O)C[C@@]21C` [Cortisone 21-acetate] (4 µM), for which the B-score was -4.16 in experiment [1] and -2.65 in experiment [2].

With `CCOC(=O)c1c(C)c(C(=O)Nc2cc(Cl)ccc2OC)c(C)n1C` (4 µM), the figures for the B-score in experiment [1] and in experiment [2] were -10 and -10.3, respectively.

On to `CCOC(=O)c1[nH]c(C)c(C(=O)N2CCc3ccccc32)c1C` (4 µM), for which the B-score was -7.72 in experiment [1] and -10.1 in experiment [2].

As for `CC1=CC(C)(C)Nc2ccc(OC(=O)CN3C(=O)CCC3=O)cc21` (4 µM), the values for the B-score in experiment [1] and in experiment [2] were -2.46 and -4.12, respectively.
